Source: PMC4094278, “The Dictyostelium discoideum RACK1 orthologue has roles in growth and development” (Cell Communication and Signaling : CCS, 2014)
These are yes or no findings as the source states them, for the method shown. Some results given as binding are weak or reduced against the parent protein; the word gives no strength. Tags and fused reporters may be left off the sequences shown.

Columns and labels:
Assay in all cases: two-hybrid; yeast Y190; DdRACK1 in pACT2 (GAL4 AD), G protein subunits in pAS2-1 (GAL4 BD); growth on SD/-Leu/-Trp/-His/+3AT plates and colony-lift β-galactosidase assay read at 1 to 6 h and after 24 h
[1] = molecular target: T1, D. discoideum G protein α11-subunit fused to the GAL4 DNA-binding domain (pAS2-1) (D. discoideum) (UniProt Q8T130)
T1 sequence: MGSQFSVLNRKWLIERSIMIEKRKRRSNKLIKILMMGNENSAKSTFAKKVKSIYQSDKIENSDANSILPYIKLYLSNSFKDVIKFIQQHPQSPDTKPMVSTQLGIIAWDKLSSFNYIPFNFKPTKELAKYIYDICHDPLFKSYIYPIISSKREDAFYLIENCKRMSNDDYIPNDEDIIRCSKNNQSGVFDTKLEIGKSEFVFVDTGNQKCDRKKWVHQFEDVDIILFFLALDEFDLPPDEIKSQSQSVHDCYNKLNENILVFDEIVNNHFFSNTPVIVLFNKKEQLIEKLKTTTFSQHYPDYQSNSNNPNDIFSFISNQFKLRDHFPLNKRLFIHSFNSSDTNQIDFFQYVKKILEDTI

[2] = molecular target: T2, D. discoideum G protein α12-subunit fused to the GAL4 DNA-binding domain (pAS2-1) (D. discoideum) (UniProt Q54VG1)
T2 sequence: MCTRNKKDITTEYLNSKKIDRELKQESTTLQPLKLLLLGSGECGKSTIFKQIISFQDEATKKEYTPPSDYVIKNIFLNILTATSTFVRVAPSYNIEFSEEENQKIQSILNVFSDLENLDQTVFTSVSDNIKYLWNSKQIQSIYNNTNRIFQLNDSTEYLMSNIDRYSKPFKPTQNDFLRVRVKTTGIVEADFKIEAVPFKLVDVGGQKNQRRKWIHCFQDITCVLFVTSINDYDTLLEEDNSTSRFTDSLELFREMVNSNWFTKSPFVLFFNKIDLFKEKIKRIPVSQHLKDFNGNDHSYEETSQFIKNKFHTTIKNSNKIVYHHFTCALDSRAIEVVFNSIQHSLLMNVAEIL

[3] = molecular target: T3, D. discoideum G protein α6-subunit fused to the GAL4 DNA-binding domain (pAS2-1) (D. discoideum) (UniProt P34044)
T3 sequence: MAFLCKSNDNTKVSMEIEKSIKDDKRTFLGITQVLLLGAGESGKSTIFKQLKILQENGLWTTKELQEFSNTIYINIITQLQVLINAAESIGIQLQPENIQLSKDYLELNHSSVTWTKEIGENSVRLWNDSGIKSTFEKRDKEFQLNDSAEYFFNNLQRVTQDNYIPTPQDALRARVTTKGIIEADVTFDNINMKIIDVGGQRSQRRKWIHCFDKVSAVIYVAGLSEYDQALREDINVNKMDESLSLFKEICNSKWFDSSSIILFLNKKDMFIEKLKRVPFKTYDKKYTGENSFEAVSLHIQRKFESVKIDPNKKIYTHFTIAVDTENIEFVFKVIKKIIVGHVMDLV

[4] = molecular target: T4, D. discoideum G protein α7-subunit fused to the GAL4 DNA-binding domain (pAS2-1) (D. discoideum) (UniProt P34045)
T4 sequence: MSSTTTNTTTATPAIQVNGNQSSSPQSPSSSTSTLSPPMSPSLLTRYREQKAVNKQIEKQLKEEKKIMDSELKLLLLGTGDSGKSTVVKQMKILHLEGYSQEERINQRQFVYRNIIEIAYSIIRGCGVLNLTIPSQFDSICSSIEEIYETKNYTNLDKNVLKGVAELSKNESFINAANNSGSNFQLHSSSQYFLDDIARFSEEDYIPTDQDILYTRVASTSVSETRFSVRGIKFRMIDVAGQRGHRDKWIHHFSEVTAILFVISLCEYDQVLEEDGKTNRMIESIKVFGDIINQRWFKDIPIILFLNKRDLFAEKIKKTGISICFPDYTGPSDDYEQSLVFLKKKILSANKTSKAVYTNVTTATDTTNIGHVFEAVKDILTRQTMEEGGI

[5] = molecular target: T5, D. discoideum G protein γ-subunit fused to the GAL4 DNA-binding domain (pAS2-1) (D. discoideum) (UniProt Q95ZG8)
T5 sequence: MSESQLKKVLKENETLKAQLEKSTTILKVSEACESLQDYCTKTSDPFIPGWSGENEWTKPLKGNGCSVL

[6] = molecular target: T6, D. discoideum G protein α1-subunit fused to the GAL4 DNA-binding domain (pAS2-1) (D. discoideum) (UniProt P16894)
T6 sequence: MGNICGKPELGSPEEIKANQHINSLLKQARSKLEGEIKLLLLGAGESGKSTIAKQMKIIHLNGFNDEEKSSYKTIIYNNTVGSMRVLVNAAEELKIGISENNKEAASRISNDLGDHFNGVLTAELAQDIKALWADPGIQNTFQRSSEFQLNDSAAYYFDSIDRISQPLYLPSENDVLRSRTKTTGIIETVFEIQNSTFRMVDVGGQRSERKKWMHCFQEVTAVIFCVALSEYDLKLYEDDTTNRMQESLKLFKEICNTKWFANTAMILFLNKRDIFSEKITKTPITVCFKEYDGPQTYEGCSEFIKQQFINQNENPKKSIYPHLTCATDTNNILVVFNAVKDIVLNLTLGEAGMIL

binding [1]: no binding | binding [2]: no binding | binding [3]: no binding | binding [4]: no binding | binding [5]: binds | binding [6]: no binding
B1: DdRACK1 fused to the GAL4 activation domain (pACT2) (protein, UniProt P46800 1-329)
chain: MEQQKAPQVTYLEVGSLVGHNGFVTSIAVSPENPDTIISSSRDKTVMVWQLTPTDATSPGKAHRSLKGHSHFVQDVVISHDGQFALSGSWDNTLRLWDITKGVSTRLFKGHTQDVMSVAFSSDNRQIISGSRDATIKVWNTLGECKFTLEGPEAHQDWVSCIRFSPNTPTIVSGSWDNKVKIWDIKSFKCNHTLTDHTGYVNTVTISPDGSLCASGGKDTFACLWELSSGKPLYKLEARNTINALAFSPNKYWLSAATDDKIIIWDLLTKQVLAEIVPEVKEQAFDSKKKKESKPKAPACLSLAWSADGSVLYAGYNDGLIRVYKSSSQ
